Laboratory results taken from the BET-seq Pho4 binding data (Le et al. 2018).
This is one part of the list. These are noisy estimates, calculated here from bound and input reads.

biological target: T1, Pho4 (S. cerevisiae) (UniProt P07270); assay: relative binding free energy (BET-seq); higher = weaker binding; details: reference: library average
T1 sequence: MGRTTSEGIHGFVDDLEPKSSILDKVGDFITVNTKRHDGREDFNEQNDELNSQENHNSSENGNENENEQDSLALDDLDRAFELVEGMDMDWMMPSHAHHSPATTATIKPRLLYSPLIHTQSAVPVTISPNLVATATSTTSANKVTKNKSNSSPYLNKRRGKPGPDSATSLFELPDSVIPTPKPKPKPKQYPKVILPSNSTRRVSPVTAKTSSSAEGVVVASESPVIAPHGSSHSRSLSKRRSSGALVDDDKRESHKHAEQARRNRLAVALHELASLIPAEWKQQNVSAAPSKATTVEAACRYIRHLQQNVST

Sequence | relative binding free energy
TTCTTCACGTGACGGT | 0.36 kcal/mol
CGGTCCACGTGAGATG | 0.53 kcal/mol
AGGGGCACGTGAAGTC | 0.09 kcal/mol
GCTCGCACGTGTGGTA | -0.02 kcal/mol
TAGGGCACGTGATGCG | -0.06 kcal/mol
GTTGCCACGTGTAGGA | -0.06 kcal/mol
TTGTCCACGTGGCGAG | 0.07 kcal/mol
AGGAGCACGTGAGTTT | 0.16 kcal/mol
TTCCTCACGTGGTTTT | 0.18 kcal/mol
GATAGCACGTGTATGT | 0.05 kcal/mol
CTTTACACGTGGGTCT | -0.01 kcal/mol
TGCGTCACGTGCGGGC | 0.03 kcal/mol
TAACGCACGTGTGGGG | -0.05 kcal/mol
TTATACACGTGGAGCT | 0.15 kcal/mol
TGTTGCACGTGAATCT | 0.15 kcal/mol
ATTGGCACGTGGATAT | -0.07 kcal/mol
GTGAGCACGTGCTTGG | -0.15 kcal/mol
ATAGGCACGTGGCGGG | -0.2 kcal/mol
CGATGCACGTGAGTGT | 0.17 kcal/mol
TGATGCACGTGAGTTC | 0.14 kcal/mol
CGGTCCACGTGGTATG | -0.05 kcal/mol
TAACGCACGTGGTAGT | -0.2 kcal/mol
ATTCACACGTGATGGG | 0.14 kcal/mol

Sequence | relative binding free energy
TACTTCACGTGGTGTT | 0.15 kcal/mol
TTTCGCACGTGAAAGT | 0.21 kcal/mol
CGGGTCACGTGGTGAC | 0.12 kcal/mol
GGGGGCACGTGAAAGA | 0.18 kcal/mol
TTAGTCACGTGGGCTC | 0.09 kcal/mol
AATGGCACGTGGAGGC | 0.14 kcal/mol
TACTACACGTGGTATG | -0.01 kcal/mol
TGGGTCACGTGAATGT | 0.3 kcal/mol
CTTGGCACGTGTGCAG | -0.03 kcal/mol
GGGTACACGTGGGGTC | 0.16 kcal/mol
AGGGACACGTGTTAGG | 0.04 kcal/mol
GTTCGCACGTGTTTGT | 0.02 kcal/mol
CTTTACACGTGATTGG | 0.32 kcal/mol
CGGAGCACGTGAGGGT | 0.17 kcal/mol
TAGTACACGTGCATGG | 0 kcal/mol
AAGCACACGTGGTTGT | 0.07 kcal/mol
TATAGCACGTGTCTAT | -0.04 kcal/mol
GTTGACACGTGGGCGC | -0.09 kcal/mol
GTATGCACGTGTTTGC | 0.11 kcal/mol
TTCTGCACGTGATAGG | 0.03 kcal/mol
CAGGTCACGTGGTTTA | 0.12 kcal/mol
TGGATCACGTGGTTTT | 0.13 kcal/mol
GGGATCACGTGCGGTA | 0.21 kcal/mol

Sequence | relative binding free energy
GTGATCACGTGGATCA | 0.27 kcal/mol
AGAGTCACGTGGTATG | -0.01 kcal/mol
TGATGCACGTGCTGGG | -0.17 kcal/mol
TGTGTCACGTGTTTAG | 0.16 kcal/mol
AAGTTCACGTGCTAGT | 0.37 kcal/mol
GATAGCACGTGTTATT | 0.18 kcal/mol
TGCGGCACGTGTGTCG | 0.02 kcal/mol
TTGAGCACGTGATTAA | 0.01 kcal/mol
AGTAACACGTGAATAT | 0.41 kcal/mol
CAGGTCACGTGATTGT | 0.12 kcal/mol
AGTTTCACGTGAGCTA | 0.53 kcal/mol
TGCTGCACGTGGCTGG | 0.03 kcal/mol
TCGGTCACGTGTATAA | 0.24 kcal/mol
TGTCCCACGTGTGTTT | -0.06 kcal/mol
GAGTTCACGTGGGGCC | 0.21 kcal/mol
GTGGGCACGTGGCTCG | -0.12 kcal/mol
AGGTGCACGTGTGTTC | -0.01 kcal/mol
ATGGGCACGTGGACAT | -0.16 kcal/mol
TTGTTCACGTGTGCTC | 0.32 kcal/mol
CCTGTCACGTGTAGGG | 0.09 kcal/mol
GGATGCACGTGGTGCT | -0.14 kcal/mol
GTGGGCACGTGAATAA | 0.14 kcal/mol
GTTAACACGTGAGGTT | 0.29 kcal/mol

Sequence | relative binding free energy
TCTGGCACGTGGGGAA | -0.17 kcal/mol
CTATTCACGTGTAAGG | 0.23 kcal/mol
AAAGGCACGTGTTGCT | -0.12 kcal/mol
GCGGGCACGTGAGGAT | 0.31 kcal/mol
TGTATCACGTGCGTGT | 0.09 kcal/mol
TACAACACGTGTTGGT | -0.04 kcal/mol
GGTGCCACGTGGGGGA | -0.17 kcal/mol
TCGTGCACGTGCGGTG | -0.09 kcal/mol
AGTTTCACGTGCGGTT | 0.23 kcal/mol
GGAGGCACGTGATTGG | 0.02 kcal/mol
TTATTCACGTGACATT | 0.28 kcal/mol
AGTGTCACGTGTTGAT | 0.02 kcal/mol
CTTATCACGTGTGTAA | 0.15 kcal/mol
GGGTCCACGTGTATGA | 0.06 kcal/mol
TGCCTCACGTGGAGTG | 0.18 kcal/mol
ATCTGCACGTGGGTGC | -0.18 kcal/mol
GTAGTCACGTGGGGGC | -0.06 kcal/mol
GTTAACACGTGGGGGC | -0.13 kcal/mol
CGTTGCACGTGGGGCT | -0.29 kcal/mol
TAAAGCACGTGATGGG | 0 kcal/mol
TAACACACGTGTTGGT | 0.12 kcal/mol
CTGTGCACGTGGTAGG | -0.05 kcal/mol
TGGAGCACGTGTGCAT | -0.06 kcal/mol

Sequence | relative binding free energy
TATCGCACGTGGTCGG | -0.15 kcal/mol
TTTCACACGTGTAAAG | 0.36 kcal/mol
ATAGACACGTGGTGGA | 0.03 kcal/mol
ATTAACACGTGGTAGT | -0.2 kcal/mol
GGTTCCACGTGATTTT | 0.1 kcal/mol
AGCGTCACGTGGTGTC | -0.01 kcal/mol
GGTTCCACGTGTGTTT | 0.18 kcal/mol
CTTTTCACGTGCGTTG | 0.16 kcal/mol
TAGTGCACGTGGGAGC | -0.04 kcal/mol
TTAGTCACGTGGTTGT | 0.04 kcal/mol
GTTGGCACGTGTATTG | 0.04 kcal/mol
CGTTACACGTGTTTGT | 0.03 kcal/mol
CGGCGCACGTGGTGAG | -0.14 kcal/mol
GGAGTCACGTGTACTT | 0.18 kcal/mol
TGGAGCACGTGGGTAT | -0.29 kcal/mol
CGTTGCACGTGAGGAT | 0.36 kcal/mol
TTTTTCACGTGAAATC | 0.46 kcal/mol
ATGTACACGTGGTTTT | 0.14 kcal/mol
ATAGGCACGTGCTAGG | -0.27 kcal/mol
ACGTTCACGTGATTTG | 0.26 kcal/mol
TTGTACACGTGTTGGG | 0.22 kcal/mol
GTAAGCACGTGTTGTT | -0.02 kcal/mol
TCTGTCACGTGGTTGA | -0.02 kcal/mol
